Results are given in words; binding and its absence hold for the method and conditions named. In cells and extracts the contact can be indirect. Some binding calls cover weakened binding; strength is not graded here.

Chains of the proteins cited; added tags and fusions are not shown.
UniProt O60260: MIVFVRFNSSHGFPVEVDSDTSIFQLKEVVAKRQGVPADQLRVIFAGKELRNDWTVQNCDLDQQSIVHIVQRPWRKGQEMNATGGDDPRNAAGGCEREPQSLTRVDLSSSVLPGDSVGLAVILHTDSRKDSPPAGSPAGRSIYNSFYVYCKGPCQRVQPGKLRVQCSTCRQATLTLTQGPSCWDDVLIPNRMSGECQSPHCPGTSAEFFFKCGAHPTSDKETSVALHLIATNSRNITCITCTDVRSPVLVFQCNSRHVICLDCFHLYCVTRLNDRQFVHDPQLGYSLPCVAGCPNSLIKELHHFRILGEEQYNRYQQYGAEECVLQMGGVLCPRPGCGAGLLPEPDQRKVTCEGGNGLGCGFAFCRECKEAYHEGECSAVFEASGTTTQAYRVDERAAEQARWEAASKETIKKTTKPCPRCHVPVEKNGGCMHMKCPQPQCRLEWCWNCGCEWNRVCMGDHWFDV
UniProt P14618: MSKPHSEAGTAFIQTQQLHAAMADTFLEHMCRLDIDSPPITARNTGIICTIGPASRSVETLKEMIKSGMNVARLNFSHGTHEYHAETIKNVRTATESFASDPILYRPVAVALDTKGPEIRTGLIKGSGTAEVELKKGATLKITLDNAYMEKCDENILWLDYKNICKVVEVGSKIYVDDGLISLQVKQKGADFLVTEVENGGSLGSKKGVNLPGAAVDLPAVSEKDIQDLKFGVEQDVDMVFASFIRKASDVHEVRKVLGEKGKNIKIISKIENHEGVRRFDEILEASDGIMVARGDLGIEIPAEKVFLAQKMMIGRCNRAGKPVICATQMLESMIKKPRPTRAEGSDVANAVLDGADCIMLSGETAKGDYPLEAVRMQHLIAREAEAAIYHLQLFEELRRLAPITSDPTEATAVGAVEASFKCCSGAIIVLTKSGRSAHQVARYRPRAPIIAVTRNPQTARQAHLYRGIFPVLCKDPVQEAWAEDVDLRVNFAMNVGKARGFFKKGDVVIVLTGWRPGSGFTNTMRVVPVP

Test [1] has as its target GFP‐PRKN expressed in HEK‐293T cells (UniProt O60260). Briefly: co-IP; HEK-293T cells expressing the constructs, NP-40 lysis buffer with 1% PMSF, antibody overnight at 4 °C, magnetic beads, western blotting (Figure 5A middle and bottom, Figure 5H). (In western blotting, separated proteins are transferred to a membrane and probed.)
For test [2], the target named is E3 ubiquitin‐protein ligase parkin (PRKN), endogenous in PANC‐1 cells (human (endogenous in PANC-1)) (UniProt O60260). Briefly: co-IP; PRKN immunoprecipitated from PANC-1 cells transduced with HACD2, PKM2, PRKN or a vector control; blots for PKM2 and HACD2 (Figure 5B).
The target is the same in test [3]. Briefly: co-IP; PC cells treated with 10 µM orlistat for 48 h (Figure 7E).
Test [4] shares this target. Briefly: co-IP; anti-PRKN antibody, PANC-1 cells with rising doses of His-HACD2 (Figure 5C).

For the substance “Flag‐PKM2 expressed in HEK‐293T cells (from UniProt P14618 1-531)”, in test [1], the binding entry is recorded as “binds”.

For “pyruvate kinase PKM (PKM2), endogenous in PANC‐1 cells (from UniProt P14618 1-531)”, the binding result in test [2], in test [3] and in test [4] was “binds” in each case.

These data come from publication PMC11904967.
